Source: the supplement of paper PMC9334596
Values joined by “and” are separate entries in the source; they are usually repeats but may differ in a detail not shown here. Identical values can stand only once. The full ranking holds about 5,300 compounds; the median of “PER2::LUC luminescence relative to vehicle control” is about 0.96, and the highest 2% start at about 1.3. The list shows a part of the results.

Tested on: mPer2Luc MEF
Assay: PER2::LUC luminescence relative to vehicle control (fold of vehicle); higher = higher PER2::LUC reporter signal
Settings: 10 µM
Procedure, shortened: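 In 384-well plates, ~3000 mPer2Luc reporter mouse embryonic fibroblasts per well were cultured in DMEM with 10% FBS at 37 °C and 5% CO2 for 48 h before compounds from commercial libraries were added at 10 μM. ONE-Glo luciferase readings were taken 24 h and 30 h after treatment. Each value is PER2::LUC luminescence given as fold of vehicle control.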

SMILES | PER2::LUC luminescence (time after treatment 24 h) | PER2::LUC luminescence (time after treatment 30 h)
CC(C)(C)NCc1cc(Nc2ccnc3cc(Cl)ccc23)c2c(c1O)CCCC2 | 0.778 | 0.809
CN(C)CCc1c[nH]c2ccc(Cn3cncn3)cc12 | 0.497 | 0.919
Nc1ccc(S(=O)(=O)c2ccc(N)cc2)cc1 | 1.04 and 0.928 | 1.02 and 0.889
O=C(c1ccc(C(=O)N2CCC(N3CCCC3)CC2)c(Nc2ccccc2)c1)N1CCC(N2CCCC2)CC1 | 0.991 | 1.03
OC[C@H]1O[C@@H](Oc2ccc(O)cc2)[C@H](O)[C@@H](O)[C@@H]1O | 1.02 | 0.876
COc1cc(/C=C/C(=O)O)cc(OC)c1OC | 0.994 | 0.955
CS(=O)(=O)c1cc(F)cc2c3c(n(Cc4ccc(Cl)cc4)c12)[C@@H](CC(=O)O)CC3 | 1.13 | 1.09
NCCCCCCCCCCN | 1.04 | 0.932
CC(Nc1ccc(-c2nn[nH]n2)cc1)C(=O)O (racemic) | 0.971 | 0.96
N#Cc1c(N)nc(SCc2csc(-c3ccc(Cl)cc3)n2)c(C#N)c1-c1ccc(OCCO)cc1 | 1.02 | 0.984
N=C(N)NCC1COC2(CCCCC2)O1 (stereo not given) | 0.966 | 0.973
CC1(C)OC(=O)NC1=O | 0.929 | 0.857
Nc1ccc(C(=O)NCC(=O)O)cc1 | 1.04 and 0.744 | 0.909 and 1.14
COc1ccc(NS(=O)(=O)c2ccc(N)cc2)nn1 | 0.945 | 0.729
Cn1ncc(Cl)c1-c1cc(C(=O)N[C@H](CN)Cc2ccc(F)c(F)c2)oc1Cl | 0.189 | 0.202
Cn1nnnc1SCC1=C(C(=O)O)N2C(=O)[C@@H](NC(=O)[C@H](O)c3ccccc3)[C@H]2SC1 | 1.07 | 0.988
Fc1ccc(-c2nc3n(c2-c2ccncc2)CCS3)cc1 | 0.645 | 0.717
O=c1c(-c2ccc(O)cc2)coc2cc(O[C@@H]3O[C@H](CO)[C@@H](O)[C@H](O)[C@H]3O)cc(O)c12 | 1.3 | 1.32
CCC[C@H](N[C@@H](C)C(=O)N1[C@H](C(=O)O)C[C@@H]2CCCC[C@@H]21)C(=O)OCC | 0.982 | 0.772
N=C(N)NC(=N)N1CCOCC1 | 1.25 | 0.999
O=C(Nc1ncc([N+](=O)[O-])s1)c1ccccc1O | 1.45 | 1.73
NC(C(=O)O)c1cc(O)cc(O)c1 (racemic) | 0.964 | 0.884
CCOC(=O)c1ccc(OCCC2CCN(c3ccc(C)nn3)CC2)cc1 | 1.06 | 0.939
NC(C(=O)O)C(O)C(=O)O (stereo not given) | 0.976 | 0.948
Cc1ncc(CSSCc2cnc(C)c(O)c2CO)c(CO)c1O | 1.01 and 0.938 | 0.875 and 0.905
CC1NC(=O)NC1=O (stereo not given) | 0.946 | 0.877
CC(=O)Oc1cccc2c1C(=O)c1c(OC(C)=O)cc(C(=O)O)cc1C2=O | 1.06 and 0.964 | 1.02 and 0.931
CCN(CC)Cc1ccc2cc(COC(=O)Nc3ccc(C(=O)NO)cc3)ccc2c1 | 0.53 and 0.352 | 0.441 and 0.278

SMILES | PER2::LUC luminescence (time after treatment 24 h) | PER2::LUC luminescence (time after treatment 30 h)
OC[C@H]1O[C@H](O[C@H]2C(O)[C@@H](O)[C@@H](OC[C@H]3O[C@@H]4O[C@H]5[C@H](O)[C@@H](O)[C@@H](O[C@H]6[C@H](O)[C@@H](O)[C@@H](O[C@H]7[C@H](O)[C@@H](O)[C@@H](O[C@H]8[C@H](O)[C@@H](O)[C@@H](O[C@H]9[C@H](O)[C@@H](O)[C@@H](O[C@H]%10[C@H](O)[C@@H](O)[C@@H](O[C@H]3[C@H](O)[C@H]4O)O[C@@H]%10CO)O[C@@H]9CO)O[C@@H]8CO)O[C@@H]7CO)O[C@@H]6CO)O[C@@H]5CO)O[C@@H]2CO)[C@H](O)[C@@H](O)[C@@H]1O (stereo not given in full) | 1.08 | 1.06
O=C(O)[C@H](Cc1ccc(Nc2nccc3ccncc23)cc1)NC1=C(Br)C(=O)C12CCCCC2 | 0.88 | 0.86
CC(C)(C#N)c1ccc(N2C(=O)OCc3cnc4ccc(-c5cnc6ccccc6c5)cc4c32)cc1 | 0.705 | 0.655
CN(C)c1ccc(C(c2ccc(N(C)C)cc2)c2cc([N+](=O)[O-])ccc2Cl)cc1 | 0.874 | 0.882
C=C1C[C@H]2[C@@H]3C=C(C)C4=CC(=O)CC[C@]4(C)[C@H]3CC[C@]2(C)[C@@]1(OC(C)=O)C(C)=O | 0.564 | 0.916
N[C@H]1C(O)O[C@H](CO)[C@@H](O)[C@@H]1O (stereo not given in full) | 0.953 and 0.831 | 1.02 and 0.963
O=c1oc(Cl)c(Cl)c2ccccc12 | 0.911 | 1.03
COc1ccc(-c2cc(=O)c3c(O)cc(O)cc3o2)cc1 | 1.41 | 1.56
CC(=O)N[C@@H](CC(=O)N[C@@H](CCC(=O)O)C(=O)O)C(=O)O | 1.06 | 1
c1ccc(C(NCCNC(c2ccccc2)c2ccccc2)c2ccccc2)cc1 | 0.763 | 0.922
Cc1ccc(S(=O)(=O)NC(=O)NN2CC3CCCC3C2)cc1 (stereo not given) | 0.44 | 0.625
CCC(C)C(C(=O)OCC[N+](C)(CC)CC)c1ccccc1 (stereo not given) | 0.922 | 1.06
O=c1c(O)cccc2cc(O)c(O)c(O)c12 | 1.06 | 1.04
O=c1cc(-c2ccccc2)oc2cc(O)c(O)cc12 | 1.41 | 1.47
CCN(CC)CCOc1ccc(Cc2ccccc2)cc1 | 0.811 | 0.893
Cc1cc(Cn2cnc3c2CC(C(=O)O)N(C(=O)C(c2ccccc2)c2ccccc2)C3)ccc1N(C)C (stereo not given) | 0.969 | 0.912
NC(N)=NCCC[C@H](NC(=O)c1sccc1NS(=O)(=O)c1cccc2nsnc12)C(=O)O | 1.07 | 1.1
O=c1c(O)c(-c2cc(O)c(O)c(O)c2)oc2cc(O)cc(O)c12 | 1.22 | 1.34
Nc1nc(=O)c2[nH]c(=O)cnc2[nH]1 | 1.08 | 1.03
N#CC(C#N)=C(N)/C(C#N)=C/c1ccc(O)cc1 | 0.999 | 1.13
CCCCS(=O)(=O)N[C@@H](Cc1ccc(OCCCCC2CCNCC2)cc1)C(=O)O | 1.03 | 1.04
O=C(Nc1cc(C(F)(F)F)ccc1N1CCCCC1)c1ccncc1 | 0.491 | 0.365
NCCS(=O)(=O)O | 0.937 | 0.891
COc1cc2nc(N3CCN(C(=O)c4ccco4)CC3)nc(N)c2cc1OC | 0.855 and 0.841 | 0.875 and 0.845
CCn1cc(C(=O)O)c(=O)c2cnc(N3CCNCC3)nc21 | 0.862 | 0.974
Cc1ccc(NC(=O)c2ccc(CN3CCN(C)CC3)cc2)cc1Nc1nc(-c2cccnc2)cs1 | 0.401 | 0.398
COc1nc(C)nc(Cl)c1NC1=NCCN1 | 1.13 and 0.865 | 0.842 and 0.844
